Assay results as given in PubChem BioAssay AID720506 (National Center for Advancing Translational Sciences (NCATS), 2013).
In all, about 2,300 compounds went through this assay and about 95 (4%) were called active. This list was built around the results that the source calls inconclusive (neither active nor inactive); the mix of calls is not that of the screen. The call rests on the fitted dose curve; in most records, active means well fitted activation curve with a large enough effect; inconclusive means small, poorly fitted or top-dose-only effect; inactive means flat fitted curve, though single readings scatter. Where the call is inconclusive, the potency comes from a doubtful curve fit.
Further: nearly all actives have a fitted effect of over 70% in size.
Potency means the concentration at half of the fitted maximal effect; tags describe the fitted curve by direction and shape.

These molecules were tested against D(3) dopamine receptor (Homo sapiens) (UniProt P35462) (assay: qHTS of D3 Dopamine Receptor Agonist: D3 Dopamine Receptor B-arrestin Agonist Confirmatory Assay). Settings: DiscoveRx D3 beta-arrestin cells, luminescence, 90 min; activation: at 76.9 µM (top of the series).
UniProt P35462, sequence (P35462 whole entry, looked up): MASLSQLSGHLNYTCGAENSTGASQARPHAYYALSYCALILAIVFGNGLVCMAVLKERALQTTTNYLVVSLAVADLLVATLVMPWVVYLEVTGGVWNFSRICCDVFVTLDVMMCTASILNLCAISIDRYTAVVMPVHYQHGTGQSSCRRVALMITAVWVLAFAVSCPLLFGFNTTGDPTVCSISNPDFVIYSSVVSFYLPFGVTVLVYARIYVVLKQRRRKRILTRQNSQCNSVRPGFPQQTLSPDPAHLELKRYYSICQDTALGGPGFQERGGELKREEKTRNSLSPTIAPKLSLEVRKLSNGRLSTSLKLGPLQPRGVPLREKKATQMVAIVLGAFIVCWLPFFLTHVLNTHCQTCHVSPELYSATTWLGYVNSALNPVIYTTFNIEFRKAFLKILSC
Outline: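 DiscoveRx D3 β-arrestin cells (1500/well) were cultured overnight at 37 °C, then given 23 nl compound by pintool (dopamine as control) for 90 min at 37 °C. DiscoveRx detection reagent was added for 30–60 min at room temperature, and luminescence was read; activation is the scored outcome.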
For `COc1ccc(NC(=O)CCN2CCN(c3ccccc3F)CC2)c(OC)c1`, the Potency was inconclusive: 112 nM [activator, full curve, poor fit].
In the case of `CCOc1ccc(NC(=O)NCCN2CCN(c3ccccc3F)CC2)cc1`, the Potency is reported as inconclusive: 25100 nM [activator, full curve, poor fit].
With `CCc1nc2ccc(C(=O)NCCCN3CCN(c4ccccc4F)CC3)cc2nc1CC` the Potency was “inactive”.
For `COc1cccc(CN2CCN(C3CCN(c4cccc(C)c4C)CC3)CC2CCO)c1` (stereo not given), the Potency was inconclusive: 22400 nM [activator, full curve].
In the case of `CCS(=O)(=O)N1CCC(C(=O)NCCCN2CCN(c3ccccc3F)CC2)CC1`, the Potency is reported as inconclusive: 141 nM [activator, full curve].
In the case of `COc1ccc(NC(=O)C(=O)NCCN2CCN(C(=O)c3ccco3)CC2)cc1`, the Potency is reported as active: 5010 nM.
For `COC(=O)c1[nH]c2cc(OC)ccc2c1NC(=O)CCN1CCN(c2cccc(C)c2C)CC1`, the Potency was “inactive”.
With `O=C(NCCCN1CCN(c2ccccc2F)CC1)C1CC(=O)N(C2CCCC2)C1` (stereo not given) the Potency was inconclusive: 158 nM [activator, full curve].
In the case of `O=C(NCCOC(=O)c1ccc(C(=O)OCCNC(=O)c2cccnc2)s1)c1cccnc1`, the Potency is reported as “inactive”.
For `Brc1ccc(CN2CCN(c3ccccc3)CC2)o1`, the Potency was “inactive”.
`COc1ccc(C(OCC(O)CNCCc2ccccc2)c2ccc(OC)cc2)cc1` (stereo not given) was tested, and the Potency was “inactive”.
`CCc1ccc(OCC(O)CN2CCN(c3ccccn3)CC2)cc1` (stereo not given) was tested, and the Potency was inconclusive: 2240 nM [activator, full curve].
For `O=[N+]([O-])c1ccc(OCC(O)CN2CCN(c3ccccc3F)CC2)cc1` (stereo not given), the Potency was inconclusive: 398 nM [activator, full curve, poor fit].
`COc1ccc2[nH]c(=O)c(CN(CCc3ccccc3)Cc3nnnn3CC3CCCO3)cc2c1` (stereo not given) was tested, and the Potency was inconclusive: 44700 nM [activator, partial curve, poor fit].
For `COc1ccccc1C(=O)N1CCC(N2CCN(c3ccccc3)CC2)CC1`, the Potency was inconclusive: 2240 nM [activator, full curve].
`CN(Cc1ccccc1)CC(O)COc1ccc(CNCCOc2cccnc2)cc1` (stereo not given) was tested, and the Potency was active: 1410 nM.
`COc1ccc(C(CCN2CCN(c3ccccc3)CC2)c2c(OC)cc(OC)c3c(-c4ccccc4)cc(=O)oc23)cc1` (stereo not given) was tested, and the Potency was inconclusive: 251 nM [activator, full curve, poor fit].
With `COc1ccc(CC2(CO)CCN(Cc3cc4ccccc4o3)CC2)cc1` the Potency was inconclusive: 501 nM [activator, full curve].
In the case of `O=C(c1c(F)cccc1F)N1CCN(CCOc2ccccc2)CC1`, the Potency is reported as inconclusive: 501 nM [activator, full curve].
With `O=C(CN1CCN(c2ccc(O)cc2)CC1)Nc1cc(S(=O)(=O)N2CCCC2)ccc1Cl` the Potency was active: 39800 nM.
`O=C(NCc1cccnc1)C(=O)NCC(c1ccco1)N1CCN(c2ccccc2)CC1` (stereo not given) was tested, and the Potency was inconclusive: 17800 nM [activator, full curve].
With `COc1ccc(C2c3ccc4ccccc4c3Oc3ncn(CCCO)c(=N)c32)cc1OC` (stereo not given) the Potency was “inactive”.
For `CC(=O)c1cccc(S(=O)(=O)N2CCN(CCOc3ccccc3)CC2)c1`, the Potency was inconclusive: 7080 nM [activator, full curve].
`O=C(O)CCn1cc(-c2ccc(F)cc2)nc1-c1ccncc1` was tested, and the Potency was “inactive”.
`CC1(C)CC(=O)c2sc(NC(=O)c3cccs3)nc2C1` was tested, and the Potency was inconclusive: 31600 nM [activator, partial curve].
In the case of `COc1cc(OC)cc(C(=O)N2CCC(N3CCN(c4ccccc4)CC3)CC2)c1`, the Potency is reported as “inactive”.
In the case of `O=C(NCC(c1ccco1)N1CCN(c2ccccc2)CC1)c1ccco1` (stereo not given), the Potency is reported as inconclusive: 31600 nM [activator, partial curve].
With `CCCCN(C)CCNC(=O)c1ccc2c(c1)NC(=O)C(N1CCCCC1)S2` (stereo not given) the Potency was inconclusive: 2820 nM [activator, full curve, poor fit].
For `CCCC(C)C(=O)Nc1ncc(S(=O)(=O)c2ccc([N+](=O)[O-])cc2)s1` (stereo not given), the Potency was inconclusive: 1260 nM [activator, full curve, poor fit].
In the case of `Cc1ccc(S(=O)(=O)N2CCOCC2)cc1NC(=O)CNCC1CCCCC1`, the Potency is reported as inconclusive: 7080 nM [activator, full curve].
In the case of `COc1cccc(OC)c1OCCN1CCN(C(=O)c2ccco2)CC1`, the Potency is reported as active: 631 nM.
With `Cc1cc(OC(C)C(=O)N2C[C@H]3C[C@@H](C2)c2cccc(=O)n2C3)c2c(C)c(C)c(=O)oc2c1` (stereo not given in full) the Potency was “inactive”.
For `O=C(NCCN1CCN(c2cccc(Cl)c2)CC1)C1CCCN(S(=O)(=O)c2cnc[nH]2)C1` (stereo not given), the Potency was inconclusive: 562 nM [activator, full curve, poor fit].
With `COc1ccc2[nH]cc(C3N4CC5(C)CN3CC(C)(C4)C5=O)c2c1` (stereo not given) the Potency was “inactive”.
For `CCCn1c(COc2ccccc2)nc2ccccc21`, the Potency was inconclusive: 7080 nM [activator, full curve].
For `COc1ccc(OCC(O)CN2CCN(c3ccccc3)CC2)cc1` (stereo not given), the Potency was inconclusive: 178 nM [activator, full curve].
For `O=C(c1cccs1)N1CCN(C/C=C/c2ccccc2)CC1`, the Potency was inconclusive: 50100 nM [activator, partial curve, poor fit].
In the case of `O=C(CCN1CCN(c2ccccc2F)CC1)Nc1ccc2c(c1)OCO2`, the Potency is reported as inconclusive: 158 nM [activator, full curve].
With `COc1cccc(NC(=O)NNC(=O)CCc2ccc(O)c(O)c2)c1` the Potency was active: 7940 nM.
With `O=C(c1ccco1)N1CCN(CCCCOc2ccc(F)cc2)CC1` the Potency was active: 1000 nM.
For `O=c1nc2ccccc2c2n1CC(CN1CCN(c3ccccc3F)CC1)N2` (stereo not given), the Potency was “inactive”.
`COc1ccc(-c2nc(CN3CCN(C(=O)c4ccco4)CC3)c(C)o2)c(OC)c1C` was tested, and the Potency was inconclusive: 35500 nM [activator, partial curve].
`CCOC(=O)C(NC(C)=O)(OCc1ccccc1)C(F)(F)F` (stereo not given) was tested, and the Potency was “inactive”.
For `Oc1ccc(N2CCN(Cc3ccc(OCCCN4CCCCC4)cc3)CC2)cc1`, the Potency was inconclusive: 251 nM [activator, full curve].
`CCc1ccc(OCC(O)CN2CCN(c3ccccc3)CC2)cc1` (stereo not given) was tested, and the Potency was inconclusive: 708 nM [activator, full curve].
For `COc1cc(CN2CCN(c3ccccc3F)CC2)c([N+](=O)[O-])cc1OC`, the Potency was inconclusive: 50100 nM [activator, single point].
With `O=C(Nc1cccc(Cl)c1)c1ccc(F)c(S(=O)(=O)NCc2ccc3c(c2)OCO3)c1` the Potency was “inactive”.
For `CCOc1ccc(S(=O)(=O)Nc2cccc(C(=O)N3CCN(c4cccc(OC)c4)CC3)c2)cc1`, the Potency was inconclusive: 35500 nM [activator, partial curve, poor fit].
`Brc1ccc(CN2CCN(c3ccccn3)CC2)s1` was tested, and the Potency was inconclusive: 447 nM [activator, full curve].
In the case of `COc1ccc(NC(=O)C(=O)NCCN2CCN(C(=O)c3cccs3)CC2)cc1`, the Potency is reported as inconclusive: 1260 nM [activator, full curve].
`CCOC(=O)C1(C(F)(F)F)N=C(C(F)(F)F)Nc2cc(C)c(C)cc21` (stereo not given) was tested, and the Potency was “inactive”.
For `O=C(CN(Cc1ccc(F)cc1)C(=O)CNS(=O)(=O)c1ccc(F)cc1)NCC1CCCO1` (stereo not given), the Potency was “inactive”.
In the case of `COc1ccccc1NC(=O)c1ccc(NC(=O)CN2CCN(C(=O)c3ccco3)CC2)cc1`, the Potency is reported as inconclusive: 44700 nM [activator, partial curve].
`COc1ccc(-c2cn(Cc3ccc4c(c3)C(=O)c3ccccc3C4=O)nn2)cc1` was tested, and the Potency was active: 39800 nM.
With `O=C(Cn1ccc2ccccc2c1=O)N1CCN(Cc2ccc3c(c2)OCO3)CC1` the Potency was “inactive”.
For `Cc1nnc(NC(=O)CCC(=O)N2CCN(CCOc3cccc4ccccc34)CC2)s1`, the Potency was inconclusive: 1580 nM [activator, full curve].
In the case of `O=C(NCCCN1CCN(c2cccc(Cl)c2)CC1)c1nc(-c2ccncc2)no1`, the Potency is reported as “inactive”.
In the case of `COc1ccc(CN2CCN(c3ncccn3)CC2)c(OC)c1`, the Potency is reported as inconclusive: 39800 nM [activator, partial curve, poor fit].
`Cc1ccccc1NC(=O)NCCCN1CCN(c2ccccc2)CC1` was tested, and the Potency was inconclusive: 158 nM [activator, full curve, poor fit].
With `c1ccc(CCN=C2CCCc3c2[nH]c2ccccc32)cc1` the Potency was inconclusive: 39800 nM [activator, partial curve, poor fit].
In the case of `CC(=O)c1ccc(NC(=O)CN2CCN(c3ccccc3)CC2)cc1`, the Potency is reported as inconclusive: 5010 nM [activator, full curve].
`CC1(C)C(C=C(Cl)Cl)C1C(=O)N1CCN(Cc2ccccc2)CC1` (stereo not given) was tested, and the Potency was inconclusive: 15800 nM [activator, full curve].
`CCOC(=O)C1(Cc2cccc(OC)c2)CCN(Cc2cnc(SC)nc2)CC1` was tested, and the Potency was “inactive”.
For `Nc1nc(CN2CCN(c3ccccc3)CC2)nc(N2CCCc3ccccc32)n1`, the Potency was active: 35500 nM.
In the case of `O=C(CN1CCN(c2ccc(O)cc2)CC1)Nc1ccc2c(c1)OCCCO2`, the Potency is reported as active: 39800 nM.
In the case of `Cc1ccccc1NC(=O)CN1CCc2ccccc2C1`, the Potency is reported as inconclusive: 891 nM [activator, full curve, poor fit].
With `c1ccc(CCCNCC2COc3ccccc3O2)cc1` (stereo not given) the Potency was inconclusive: 158 nM [activator, full curve, poor fit].
With `COc1ccc(CN2CCN(C(=O)c3ccco3)CC2)cc1OCc1ccccc1` the Potency was inconclusive: 3550 nM [activator, full curve].
`Cc1ccc2c(c1)C(O)(CC(=O)/C=C/C=C/c1ccccc1)C(=O)N2` (stereo not given) was tested, and the Potency was “inactive”.
For `O=S(=O)(Cc1ccccc1)N1CCC(N2CCN(c3ccccc3)CC2)CC1`, the Potency was inconclusive: 562 nM [activator, full curve].
